# This is one part of the list.
# T1: UNK ZnF1-3 (human, UniProt Q9C0B0 31-174)
# T1 sequence: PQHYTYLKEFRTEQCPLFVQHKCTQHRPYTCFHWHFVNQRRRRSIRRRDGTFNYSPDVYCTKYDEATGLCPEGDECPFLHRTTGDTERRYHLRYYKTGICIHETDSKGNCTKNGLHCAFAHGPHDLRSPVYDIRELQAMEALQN
# B1: chr1:225611761:225611762:-_ENSG00000143815_ENST00000272163|hu_mus|hu_hu_hu_mus_True|8_28 (ssRNA)
# RNA: GGGAGUUCUACAGUCCGACGAUCCCAGGCCAUCGGCCUCUGACCACUUCACCCUCAACAAACUUCCUACUUGGCAUUUUCUAAAAUUAGUCUGGCCGCGCUCCGGCCGGUGACACGGCCACUCCAGGGAGAAUAGUAGCAGCCCAACAGAGGAUUGAGCAUCA
# B2: chr17:34945718:34945719:+_ENSG00000005955_ENST00000304718|hu_mus|motif|central (ssRNA)
# RNA: GGGAGUUCUACAGUCCGACGAUCAUUUAAGCGGCAGUAUUUAUUAAAUUUCUCCUUCAGAUGCUGUCGGUAUUGUUCUCGGUUGCUGUAGAAAGACUGGUUAUUAGCCAUAAAUGACUGUAUUUCAUCUUGUGAGAUAAAGAUCAACAGAGGAUUGAGCAUCA
# B3: chr2:114674474:114674475:+_ENSG00000115091_ENST00000535589|hu_hu|FALSE|FALSE (ssRNA)
# RNA: GGGAGUUCUACAGUCCGACGAUCGUCAUCAACACCUUUCAUCACCCUCCUUUGAGCUUGAUCACCCACUUUUGCUGACUCCUUAAUAGCAAUACAGGAAGGGAUGAUAAACUGUGGUUCUGUAUUUCCAGCAUAUCCUAGUUUCAACAGAGGAUUGAGCAUCA
# B4: 144360401_144368566_810_CDS_ENSMUSG00000037062_ENSMUST00000163279|mouse|control|control (ssRNA)
# RNA: GGGAGUUCUACAGUCCGACGAUCACUUUGAGUUAUUCUCAAUUCCUGUUCAGAUGAACUUUUAGUUUCUGCAGCUUUUGCCUUUUUUAGUCUUGUUUUUGCAGCAUCCAAAUCCAGUCUCUUAUUCUGUAAUAGUUUCCUUUCCAACAGAGGAUUGAGCAUCA
# B5: 179956415_179959755_592_3pUTR_ENSG00000135837_ENST00000367607|human|control|control (ssRNA)
# RNA: GGGAGUUCUACAGUCCGACGAUCUUUUCUACUUAUUUUUCGAGUAGCACUUGUAGAAGACUUCUUGGUAUCCAUGACAGAAUCACACACAGCUGUACUUGUAGGGGCUACUUCUAAUUUAUUUUCAAUGUGUCUCAGAGCAGCCAACAGAGGAUUGAGCAUCA
# B6: chr19:59067291:59067292:-_ENSG00000130725_ENST00000253023|hu_mus|motif|central (ssRNA)
# RNA: GGGAGUUCUACAGUCCGACGAUCCAGGUCGGGGGGGAGGCAGCACCGACCAUAAUCACGUGGUGGUCAAAAAAAAAAUAACGGGGGGCAGGUGACAGGGAAGAGAGGCAAGGCCAAGGCAGGGGCCAAGGCUACCCCACACACCAACAGAGGAUUGAGCAUCA
# Molecular target: T1, UNK ZnF1-3
# Assay: nsRBNS (natural sequence RNA bind-n-seq); RBNS binding buffer (assumed for nsRBNS): 25 mM Tris pH 7.5, 150 mM KCl, 3 mM MgCl2, 0.01% Triton X-100, 500 ug/ml BSA, 20 U/ml SUPERase-In, 4 C; UNK is unkempt and MSI1 is Musashi-1; names of the RNAs are library labels; protein concentration not given here; high values mean tight binding
row,Binder,binding signal [enrichment R]
1,B1,1.05
2,B2,0.68
3,B3,0.752
4,B4,0.321
5,B5,1.18
6,B6,2.56

# From paper PMC12136788
